Source: patent publication US10913712B2, “Tetracycline compounds” (Tetraphase Pharmaceuticals, Inc., priority 2012, dated 2021)
Values belong to the compound of their own block, whether it stands above or below them.

Experiments:
[1] = tested on: K. pneumoniae UNT023-1 (KPC producing strain); assay: Mouse pneumonia study, 24 hour lung CFU counts; format: in vivo, Female CD-1 mice; settings: N. BO @ 2 and 12 hrs. post-infection; for Mean log10 CPU/pair Lung: 24 hour lung counts, neutropenic CD-1 mice
[2] = tested on: K. pneumoniae UNT023-1 (KPC producing strain); assay: MIC of the test articles of the mouse pneumonia study (Table 9); format: cell-based; settings: Klebsiella pneumoniae

SMILES: CCN(CC)[C@@H]1C(O)=C(C(N)=O)C(=O)[C@@]2(O)C(O)=C3C(=O)c4c(O)cc(C5CCCN5)c(C(F)(F)F)c4C[C@H]3C[C@@H]12 (single isomer, unassigned) [Compound S4-14-14-A]
- Log10 change from 2 hr. Control ([1]; 5 mg/kg/dose): 1.83 Log10
- Mean log10 CPU/pair Lung ([1]; 5 mg/kg/dose): 8.18 log10 CPU/pair Lung
- Mean log10 CPU/pair Lung ([1]; 15 mg/kg/dose): 8.71 log10 CPU/pair Lung
- Mean log10 CPU/pair Lung ([1]; 40 mg/kg/dose): 8.32 log10 CPU/pair Lung

- MIC [2]: 0.125 µg/mL
SMILES: CCN(C)[C@@H]1C(O)=C(C(N)=O)C(=O)[C@@]2(O)C(O)=C3C(=O)c4c(O)cc5c(c4C[C@H]3C[C@@H]12)N(C)CC1CCN(C)C51 (single isomer, unassigned) [Compound S5-10-3-B]

SMILES: CCN(C)[C@@H]1C(O)=C(C(N)=O)C(=O)[C@@]2(O)C(O)=C3C(=O)c4c(O)cc(C5CCCN5)c(C(F)(F)F)c4C[C@H]3C[C@@H]12 (single isomer, unassigned) [Compound S4-14-5-A]
- Log10 change from 2 hr. Control ([1]; 15 mg/kg/dose): −0.83 Log10
- Log10 change from 24 hr. Control ([1]; 40 mg/kg/dose): −2.51 Log10
- Mean log10 CPU/pair Lung ([1]; 40 mg/kg/dose): 6.89 log10 CPU/pair Lung

SMILES: CN(C)c1cc(NC(=O)CNC(C)(C)C)c(O)c2c1C[C@H]1C[C@H]3[C@H](N(C)C)C(O)=C(C(N)=O)C(=O)[C@@]3(O)C(O)=C1C2=O [Tigecycline, tigecycline]
- Mean log10 CPU/pair Lung ([1]; 80 mg/kg/dose): 5.27 log10 CPU/pair Lung
